{"source": "PubChem BioAssay AID686978", "about": "(National Center for Advancing Translational Sciences (NCATS), 2013)", "note": "“And” between values parts separate entries of the source, which are not always exact repeats. Identical values can stand only once. The campaign covered roughly 420,000 compounds. About 64,000 (15%) were called active. Inconclusive means that the source gave no clear call. Such entries were picked first, then a sample of the others. Calls come from the whole dose curve; as a rule, active = well fitted inhibition curve with a large enough effect; inconclusive = small, poorly fitted or top-dose-only effect; inactive = flat fitted curve, though single readings scatter. Potencies of inconclusive entries are left out as doubtful fits. Potency is the fitted concentration of half-maximal effect; tags give direction and shape of the fitted curve.", "data": [{"assay": "qHTS for Inhibitors of human tyrosyl-DNA phosphodiesterase 1 (TDP1): qHTS in cells in absence of CPT; note: nearly all actives have a fitted effect of over 55% in size", "details": "DT40 Tdp1-/- hTDP1 cells, no CPT, ATP luminescence, 48 h; series mostly up to 46.2 µM", "how_it_was_run": "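A cellular qHTS used chicken DT40 cells lacking endogenous Tdp1 but carrying stably transfected human TDP1. Compounds were applied without camptothecin, and cell growth kinetics were judged by ATP-dependent luminescence after ≥48 hr.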", "values": [{"smiles": "CC(C)n1cc(C(=O)c2cc(Br)ccc2O)cc(C#N)c1=O", "Potency": "active: 18.4 µM"}, {"smiles": "COC(=O)C1=CN(CCCN2CCCC2=O)C=C(C(=O)OC)C1c1ccccc1C(F)(F)F", "Potency": "inconclusive [inhibitor, single point]"}, {"smiles": "O=C(NC(Cc1ccccc1)C(=O)N1CCCCCC1)c1ccccc1", "note": "(stereo unspecified)", "Potency": "inconclusive [inhibitor, single point]"}, {"smiles": "Cc1cc(=O)oc2cc(NC(=O)c3ccccc3OC(F)F)ccc12", "Potency": "inactive"}, {"smiles": "COCc1nnc(NC(=O)c2ccc(S(=O)(=O)N(C)C3CCCCC3)cc2)o1", "Potency": "inconclusive [inhibitor, single point]"}, {"smiles": "O=C(NCc1ccccc1)c1cc2sccc2n1Cc1ccc(Cl)cc1", "Potency": "inactive"}, {"smiles": "COc1cc(/C=C/C(=O)OCC(=O)c2ccc[nH]2)cc(OC)c1OC", "Potency": "inconclusive [inhibitor, single point]"}, {"smiles": "CCCSc1nnc(-c2cnn(-c3ccccc3)c2-n2cccc2)n1C", "Potency": "active: 14.6 µM"}, {"smiles": "CCOc1ccc(NC(=O)COC(=O)Cc2ccc(S(=O)(=O)N3CCOCC3)s2)cc1", "Potency": "inactive"}, {"smiles": "COc1ccc2sc(-c3ccc(N(C)C)cc3)c(C#CCO)c2c1", "Potency": "active: 18.4 µM"}, {"smiles": "COc1ccc(OC)c(NC(=O)c2ccc(NS(=O)(=O)c3c(C)noc3C)cc2)c1", "Potency": "inconclusive [inhibitor, single point]"}, {"smiles": "CCSc1nnc([C@H](Cc2c[nH]c3ccccc23)NC(=O)OC(C)(C)C)o1", "Potency": "inconclusive [inhibitor, partial curve]"}, {"smiles": "COC(=O)c1ccc(SCC(=O)NCc2ccccc2)c([N+](=O)[O-])c1", "Potency": "inconclusive [inhibitor, full curve, poor fit]"}, {"smiles": "CCc1ccccc1NC(=O)CN(C)S(=O)(=O)c1ccc2c(c1)c(=O)n(C)c(=O)n2C", "Potency": "inconclusive [inhibitor, partial curve, poor fit]"}, {"smiles": "O=C1c2ccccc2S(=O)(=O)c2cc(C(=O)N3CCC(C(=O)N4CCCCC4)CC3)ccc21", "Potency": "inactive"}, {"smiles": "CCOc1ccc(N(C)C(=O)CS(=O)(=O)c2cccc3nsnc23)cc1", "Potency": "inconclusive [inhibitor, single point]"}, {"smiles": "COCCCN(C(=S)Nc1ccc(C)cc1Cl)C(C)c1ccncc1", "note": "(stereo unspecified)", "Potency": "inconclusive [inhibitor, full curve, poor fit]"}, {"smiles": "CCn1cc(CN2CCC(n3nccc3NC(=O)c3ccccc3C)CC2)cn1", "Potency": "inactive"}, {"smiles": "N#CCCN(/N=C/c1cccnc1)C1=NS(=O)(=O)c2ccccc21", "Potency": "inconclusive [inhibitor, partial curve]"}, {"smiles": "Cc1ccccc1CSc1nc2ccccc2c(=O)[nH]1", "Potency": "inconclusive [inhibitor, partial curve]"}, {"smiles": "CCc1nnc(NC(=O)c2ccc(S(=O)(=O)N3CCCC(C)C3)cc2)o1", "note": "(stereo unspecified)", "Potency": "inconclusive [inhibitor, single point]"}, {"smiles": "Cc1cccc(NC(=O)c2c([N+](=O)[O-])c(C(C)(C)C)nn2C)c1", "Potency": "inactive"}, {"smiles": "COC(=O)C1(Cc2cc(-c3ccc(OC)cc3OC)no2)CCN(C(=O)OC(C)(C)C)CC1", "Potency": "active: 20.6 µM"}, {"smiles": "CC(C)c1nc2oc3c(N4CCNCC4)ncnc3c2c2c1CCC2", "Potency": "inactive"}, {"smiles": "CCOc1ccccc1C(=O)NCC(=O)Nc1ncccc1C", "Potency": "inconclusive [inhibitor, full curve]"}, {"smiles": "O=C(Nc1ccccn1)c1ccc2c(c1)OCCO2", "Potency": "inconclusive [inhibitor, partial curve, poor fit]"}, {"smiles": "COC(=O)c1c(Cl)c2n3ccccc3c(C)c(-c3ccccc3)c-2c1C(=O)OC", "Potency": "active: 23.1 µM"}, {"smiles": "O=C1CCC(N2C(=O)c3ccccc3C2=O)C(=O)N1", "note": "(stereo unspecified)", "Potency": "inconclusive [inhibitor, single point]"}, {"smiles": "CCn1cc(Br)c(C(=O)Nc2ccc(C(=O)OC(C)C)cc2)n1", "Potency": "inconclusive [inhibitor, single point]"}, {"smiles": "CN(Cc1cnccn1)Cc1nc(Cc2cccc(F)c2)no1", "Potency": "inactive"}, {"smiles": "Cn1c(=O)c([N+](=O)[O-])c(NCC(O)c2ccccc2)c2ccccc21", "note": "(stereo unspecified)", "Potency": "active: 18.4 µM"}, {"smiles": "COc1ccc2nc3oc(C(=O)N4CCN(c5cc(C)ccc5C)CC4)cc3cc2c1", "Potency": "inconclusive [inhibitor, single point]"}, {"smiles": "COc1ccc(C(c2c(N)[nH]c(=S)[nH]c2=O)c2c(N)[nH]c(=S)[nH]c2=O)cc1", "Potency": "inactive"}, {"smiles": "CSc1ccc(/C=C/C(=O)OCC(=O)NCC2CCCO2)cc1", "note": "(stereo unspecified)", "Potency": "inconclusive [inhibitor, single point]"}, {"smiles": "CN(C(=O)COC(=O)c1ccc(Br)c(S(=O)(=O)N2CCOCC2)c1)C1CCCCC1", "Potency": "inconclusive [inhibitor, single point]"}, {"smiles": "COc1ccc(CC(=O)Nc2sc3c(c2C(=O)Nc2cccc(Cl)c2)CCCCC3)cc1", "Potency": "inconclusive [inhibitor, single point]"}, {"smiles": "O=C(O)CCCCCNc1ccc2nsnc2c1[N+](=O)[O-]", "Potency": "inactive"}, {"smiles": "O=C(Nc1c2c(nc3ccccc13)CCCC2)c1ccccc1F", "Potency": "inconclusive [inhibitor, single point]"}, {"smiles": "CC(C)C(C(=O)NCC1CCCO1)N(C(=O)CNS(=O)(=O)c1ccc(F)cc1)c1ccccc1", "note": "(stereo unspecified)", "Potency": "inactive"}, {"smiles": "O=C(CS(=O)(=O)c1ccccc1)c1cc2cc(F)ccc2oc1=O", "Potency": "inconclusive [inhibitor, single point]"}, {"smiles": "COc1cccc(C(NC(C)=O)c2nc(-c3ccccc3)cs2)c1", "note": "(stereo unspecified)", "Potency": "inconclusive [inhibitor, single point]"}, {"smiles": "C/C(=N\\NC(=O)c1c(Cl)c(C)nn1C)c1ccc(NC(=O)C2CCC2)cc1", "Potency": "active: 0.366 µM"}, {"smiles": "C[n+]1ccc(/C=C/c2c[nH]c3ccc(F)cc23)cc1", "Potency": "active: 0.82 µM"}, {"smiles": "CCOc1ccccc1NC(=O)c1ccccc1-c1ccccc1", "Potency": "active: 23.1 µM"}, {"smiles": "O=C1NCCN1CCN1CCC(c2cn(-c3ccc(F)cc3)c3ccc(Cl)cc23)CC1", "Potency": "active: 2.11 µM and active: 2.66 µM"}, {"smiles": "COc1ccc(S(=O)(=O)N2CCCCC2)cc1NC(=O)c1ccc([N+](=O)[O-])o1", "Potency": "active: 20.6 µM"}]}]}
